The values that follow come from the supplement of paper PMC11417369.

± gives the standard deviation of the averaged measurements. Some of the results follow.

This experiment deals with PfAP2-EXP AP2 domain (GST-tagged). The experiment is described as follows: gcPBM binding intensity (ln(normalized median fluorescence intensity)); higher = stronger DNA binding. The procedure, abridged: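 Binding intensity is the highest Masliner-normalised natural-log median intensity over replicate spots in either probe orientation. To obtain it, GST-tagged P. falciparum DNA-binding domains made in E. coli were incubated for 1 h on an Agilent 4 × 180k array of primer-extended double-stranded 36-bp intergenic genomic probes plus negative controls. Detection used Alexa488 anti-GST antibody with scanning at 488 nm.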
Regarding “AGGCCCTATGTTGTTACACACATAGAATGATACATC [CACACA_site1266]”, the “gcPBM binding intensity (ln)” value was determined as 8.53 ± 0.35.

Regarding “AAAACAGTGACAACTCGTACTTATATTTTTTTTTGT [XGTACX_site4968]”, the “gcPBM binding intensity (ln)” value was determined as 8.42 ± 0.41.

For “AAAGTACAATCATAATCACACGTGTCTATTATATAC [CACACA_site8103]”, the “gcPBM binding intensity (ln)” value is 8.65 ± 0.42.

Regarding “CAAAGATAAAATGATGCACACAAAAGGGTGTAATAT [CACACA_site8499]”, the “gcPBM binding intensity (ln)” value was 8.9 ± 0.35.

On to “TATATTTATTTATATGTATGCATGTCTGTATATGCT [TGCATGCA_site339]”, for which the “gcPBM binding intensity (ln)” value was determined as 8.57 ± 0.45.

In the case of “ACATGGTTTACACGTGCATGTGGATGACTGGACATT [TGCATGCA_site640]”, the “gcPBM binding intensity (ln)” value worked out at 8.93 ± 0.29.

“TTTTCTTTTAATATTTTTAATAATTATATTTTGAAA [XGTACX_negctrl_site495]”: the “gcPBM binding intensity (ln)” value worked out at 8.34 ± 0.47.

Take “TGAGAAAATTAAAAGGTGCTCAGAAATTTTATATTA [GTGCAC_site9954]”: the “gcPBM binding intensity (ln)” value stood at 8.45 ± 0.33.

As for “AATACGACAAACAAATGTACAAATAAATATTCGCGT [XGTACX_site6427]”, the “gcPBM binding intensity (ln)” value is 9.02 ± 0.58.

Turning to AAAAATGTAAAGTGCGTGCACAAAATATTTGGAAAA, the “gcPBM binding intensity (ln)” value was determined as 9.06 ± 0.28.

In the case of “AAATTACTAATGTGCACACATACTAACGTTTAAATA [CACACA_site3572]”, the “gcPBM binding intensity (ln)” value amounted to 8.94 ± 0.16.

With “TATCTGTATTTATATACACACATATTCTTTTTACAC [CACACA_site4798]”, the “gcPBM binding intensity (ln)” value was determined as 8.75 ± 0.33.

In the case of “AAAATCACAAAACACACACACACAAAAAAAAAAAAA [CACACA_site1443]”, the “gcPBM binding intensity (ln)” value was found to be 8.12 ± 0.6.

Consider “CACATATAGTTATATGCACACATCTTACACATATAT [CACACA_site3692]”, for which the “gcPBM binding intensity (ln)” value amounted to 8.74 ± 0.33.

Turning to “CATGGGCAAATATTCTCACACATAAACATAAACATA [CACACA_site4597]”, the “gcPBM binding intensity (ln)” value amounted to 8.46 ± 0.61.

“AAAAAAGTAAAAAAAGCACACACGAAAAAAAATAAA [CACACA_site2233]”: the “gcPBM binding intensity (ln)” value was 8.93 ± 0.7.

With “ATGGTGCAACATTATGCACACCGTTAAATAACTAAT [CACACA_site9280]”, the “gcPBM binding intensity (ln)” value turned out to be 8.99 ± 0.36.

As for “GTTTGAAGAACTATAAATGTATAAATAAAAGTTTAG [TGCATGCA_negctrl_site222]”, the “gcPBM binding intensity (ln)” value stood at 8.31 ± 0.42.

On to “ATATAGTAAAATTATACACACATGAATTTTCCCATG [CACACA_site1770]”, for which the “gcPBM binding intensity (ln)” value is 8.48 ± 0.49.

For the sequence “GGGAATTATGAAAAAAGTACAGAACAAAAGTAAAAG [XGTACX_site2861]”, the “gcPBM binding intensity (ln)” value was found to be 9.06 ± 0.47.

“ATTACATGATATATCACACACACATATAAATATATA [CACACA_site2830]”: the “gcPBM binding intensity (ln)” value is 8.73 ± 0.41.

Take “CATATATATATATATACACACACACCGTCCGTGTTA [CACACA_site8975]”: the “gcPBM binding intensity (ln)” value worked out at 8.64 ± 0.35.

Take “TTTTTTTTTTTTTTTTGTACTCATAAAAATATATTA [XGTACX_site3458]”: the “gcPBM binding intensity (ln)” value was 8.31 ± 0.46.

For “TACAAAAATGAAAAAAGTACATATCATTTAATATAA [XGTACX_site8066]”, the “gcPBM binding intensity (ln)” value was determined as 8.46 ± 0.4.

In the case of “ATATGTATTTATATATGTTTGAATTTTTTTTTTTTT [CACACA_negctrl_site5]”, the “gcPBM binding intensity (ln)” value was determined as 8.15 ± 0.35.

On to “GTTCGAAGTATAATTTGTACATATAAAATGGTTCCC [XGTACX_site382]”, for which the “gcPBM binding intensity (ln)” value is 8.48 ± 0.42.

For the sequence “GAATAAATAAATAAATGTACATATATATTTATTTAT [XGTACX_site243]”, the “gcPBM binding intensity (ln)” value was 8.34 ± 0.36.

With “ATTTGATCAACAAAACGTACACATATTTTCATGTGT [XGTACX_site447]”, the “gcPBM binding intensity (ln)” value is 8.44 ± 0.37.

For “TAGTTTTCTTAAAGATGTACTTATTAAAAATAAACT [XGTACX_site1001]”, the “gcPBM binding intensity (ln)” value was determined as 8.13 ± 0.17.

For the sequence “TATAGATAAATTATTTGTACTTATAAAATTATTATA [XGTACX_site2870]”, the “gcPBM binding intensity (ln)” value amounted to 8.11 ± 0.38.

For “AATGATTGATTTTATTGTACGTACTCGGAATATGGT [XGTACX_site4976]”, the “gcPBM binding intensity (ln)” value worked out at 8.74 ± 0.4.

Take “GAATTTTAAATAAACATATAAACAGAAAAAAAAAAA [TGCATGCA_negctrl_site149]”: the “gcPBM binding intensity (ln)” value worked out at 8.55 ± 0.37.

On to “AACCTCATGGACATATGTACACATATACAATTATTT [XGTACX_site6533]”, for which the “gcPBM binding intensity (ln)” value is 8.77 ± 0.33.

Turning to “TTATCTTACATATATCATTAAATCATATAACAAAAA [XGTACX_negctrl_site517]”, the “gcPBM binding intensity (ln)” value came out at 8.24 ± 0.41.

For the sequence “TTATGTATTTTAAATGGTTTTATTATAAAGTTTAAT [CACACA_negctrl_site1470]”, the “gcPBM binding intensity (ln)” value stood at 8.27 ± 0.37.

As for “CACAAATATACAAATACACACAAATATACGCATATA [CACACA_site2384]”, the “gcPBM binding intensity (ln)” value worked out at 8.61 ± 0.48.

Take GTTATATTTAAAATAGTGCAATAAAAATAATAATAT: the “gcPBM binding intensity (ln)” value was found to be 8.89 ± 0.2.

For the sequence “CCTTTATAATTGGAAACACACATATAAAGTATATAT [CACACA_site3900]”, the “gcPBM binding intensity (ln)” value was determined as 8.38 ± 0.43.

For the sequence “ATATAATATATATACAAACACACAATTGTGTCCACA [CACACA_site1748]”, the “gcPBM binding intensity (ln)” value was determined as 8.85 ± 0.33.

Consider “AAAATACATGGACACACACACACACCGATATATATA [CACACA_site5885]”, for which the “gcPBM binding intensity (ln)” value is 8.87 ± 0.42.

As for “TACATAACTTTAATCACACACAAACAAACACATACA [CACACA_site6235]”, the “gcPBM binding intensity (ln)” value turned out to be 8.81 ± 0.61.

Consider “AAATATACATATATATGTACATATAAATATATTTTA [XGTACX_site5266]”, for which the “gcPBM binding intensity (ln)” value stood at 8.38 ± 0.33.

In the case of “TCTTACAAGGAACTAATAAAATTGTAGTTTGTATTT [CACACA_negctrl_site386]”, the “gcPBM binding intensity (ln)” value turned out to be 8.16 ± 0.33.

Take “AAATCTTAATAAAGTTGTACATAATTATGTTTAATA [XGTACX_site3348]”: the “gcPBM binding intensity (ln)” value is 8.43 ± 0.33.
